# Assay results: the supplement of paper PMC4604168 (melanoma cell lines)
# The list shows a part of the results. Repeats are few or missing, and single values can be far off.
# What was measured:
# Assay in all cases: cell count relative to DMSO control; melanoma cells; higher = more viable cells
# Settings in all cases: library dose: standard library concentration; 72 h
# G361 = tested on: G361
# IPC-298 = tested on: IPC-298
# IST-MEL1 = tested on: IST-MEL1
# LB2518-MEL = tested on: LB2518-MEL
# LOXIMVI = tested on: LOXIMVI
# MEL-HO = tested on: MEL-HO
# MZ2-MEL = tested on: MZ2-MEL
# MeWo = tested on: MeWo
# RPMI7951 = tested on: RPMI7951
# RVH-421 = tested on: RVH-421
# SkMel28 = tested on: SkMel28
# SkMel2 = tested on: SkMel2
# SkMel30 = tested on: SkMel30
# SkMel5 = tested on: SkMel5
# UACC257 = tested on: UACC257
# UACC62 = tested on: UACC62
# WM115 = tested on: WM115
# WM1716 = tested on: WM1716
# WM1745 = tested on: WM1745
# WM3526 = tested on: WM3526
# 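Further: cells treated in 1,536-well plates, then fixed and DAPI-stained, with nuclei counted from automated high-throughput microscope images.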
SMILES,cell count (G361),cell count (IPC-298),cell count (IST-MEL1),cell count (LB2518-MEL),cell count (LOXIMVI),cell count (MEL-HO),cell count (MZ2-MEL),cell count (MeWo),cell count (RPMI7951),cell count (RVH-421),cell count (SkMel28),cell count (SkMel2),cell count (SkMel30),cell count (SkMel5),cell count (UACC257),cell count (UACC62),cell count (WM115),cell count (WM1716),cell count (WM1745),cell count (WM3526)
"Nc1ccn([C@@H]2O[C@H](CO)[C@@H](O)C2(F)F)c(=O)n1 [gemcitabine] + C[As](C)SC[C@H](NC(=O)CC[C@H](N)C(=O)O)C(=O)NCC(=O)O [Darinaparsin] (first compound 0.002 µM, partner dose 2 µM)",50.5%,45.8%,39.6%,63.2%,69.7%,50.5%,66.3%,46.6%,62.6%,48%,97.8%,84.6%,83.9%,57.2%,90.8%,88.2%,92.6%,51.4%,47.4%,75.3%
"Cc1cc([N+](=O)[O-])ccc1NS(=O)(=O)c1cc(Cl)ccc1Cl + O=C(Oc1ccc([N+](=O)[O-])cc1)N1CCC(C(O)(c2ccc3c(c2)OCO3)c2ccc3c(c2)OCO3)CC1 [JZL184] (first compound 5 µM, partner dose 5 µM)",62.4%,60.9%,67.5%,95%,66%,58.4%,74.9%,70.5%,98.3%,10.4%,88.7%,98.9%,91.8%,83.6%,55.9%,80.3%,80.2%,82.7%,87.9%,67.6%
"Cn1c(Nc2ccc(C(F)(F)F)cc2)nc2cc(Oc3ccnc(-c4ncc(C(F)(F)F)[nH]4)c3)ccc21 + O=C(Oc1ccc([N+](=O)[O-])cc1)N1CCC(C(O)(c2ccc3c(c2)OCO3)c2ccc3c(c2)OCO3)CC1 [JZL184] (first compound 0.4 µM, partner dose 5 µM)",27%,46.6%,88%,40.3%,95.2%,66.2%,66.6%,90%,56.7%,51.1%,40.2%,45.3%,59.9%,31.9%,71%,44.8%,42.1%,67.9%,61.8%,43.3%
"C[C@@H]1CCN(C(=O)CC#N)C[C@@H]1N(C)c1ncnc2[nH]ccc12 + Cc1cc(SCc2sc(-c3ccc(C(F)(F)F)c(F)c3)nc2C)ccc1OCC(=O)O [GW0742] (first compound 5 µM, partner dose 10 µM)",99.8%,111%,97.4%,132%,120%,103%,101%,89.5%,104%,94.1%,90.5%,98.1%,100%,93.4%,111%,139%,102%,117%,94.3%,105%
"Cc1nc(Nc2ncc(C(=O)Nc3c(C)cccc3Cl)s2)cc(N2CCN(CCO)CC2)n1 [dasatanib] + C/C(O)=C(\C#N)C(=O)Nc1cc(Br)ccc1Br [LFM-A13] (first compound 0.02 µM, partner dose 10 µM)",76.5%,87.6%,70.6%,76.9%,31.5%,68.9%,12.2%,86.7%,32.2%,70.7%,102%,91%,91.3%,65.3%,80.8%,100%,64.4%,55.5%,35.1%,77.6%
"CN1CCN(c2ccc3nc(-c4c(N)c5c(F)cccc5[nH]c4=O)[nH]c3c2)CC1 [Dovitinib] + C[As](C)SC[C@H](NC(=O)CC[C@H](N)C(=O)O)C(=O)NCC(=O)O [Darinaparsin] (first compound 0.5 µM, partner dose 2 µM)",64.9%,76.6%,79.3%,59.2%,80.3%,77.9%,65.7%,68.3%,76.6%,56.8%,62%,58.8%,82.8%,65.9%,90.8%,61.1%,50.9%,65.5%,52.9%,60.3%
"Cn1c(Nc2ccc(C(F)(F)F)cc2)nc2cc(Oc3ccnc(-c4ncc(C(F)(F)F)[nH]4)c3)ccc21 + C/C(O)=C(\C#N)C(=O)Nc1cc(Br)ccc1Br [LFM-A13] (first compound 0.4 µM, partner dose 10 µM)",39.8%,51.2%,81.7%,32.9%,71.9%,61.2%,59.2%,70.4%,60.4%,65.7%,29.3%,58.6%,65.2%,37.3%,75.4%,50.8%,45.5%,71.4%,60.4%,40.3%
"CO[C@H]1C[C@@H]2CC[C@@H](C)[C@@](O)(O2)C(=O)C(=O)N2CCCC[C@H]2C(=O)O[C@H]([C@H](C)C[C@@H]2CC[C@@H](OCCO)[C@H](OC)C2)CC(=O)[C@H](C)/C=C(\C)[C@@H](O)[C@@H](OC)C(=O)[C@H](C)C[C@H](C)/C=C/C=C/C=C/1C [everolimus] + C[As](C)SC[C@H](NC(=O)CC[C@H](N)C(=O)O)C(=O)NCC(=O)O [Darinaparsin] (first compound 0.1 µM, partner dose 2 µM)",47.2%,57.5%,69.3%,56.1%,64.2%,51.7%,73%,53.8%,69%,53.6%,35.2%,59.5%,61.5%,37.1%,93.7%,49.1%,51.1%,51.3%,66.2%,52.7%
"COCC[n+]1c2c(n(Cc3cnccn3)c1C)C(=O)c1ccccc1C2=O + C/C(O)=C(\C#N)C(=O)Nc1cc(Br)ccc1Br [LFM-A13] (first compound 0.002 µM, partner dose 10 µM)",89.1%,65.7%,55.6%,55.6%,78.9%,105%,28.1%,65.4%,63.8%,100%,54.1%,58%,67.6%,75.4%,19.4%,88.1%,72.7%,75.1%,89.7%,60.2%
"O=C1NC(=O)/C(=C/c2ccc(-c3ccc(F)cc3O)o2)S1 + O=C(Oc1ccc([N+](=O)[O-])cc1)N1CCC(C(O)(c2ccc3c(c2)OCO3)c2ccc3c(c2)OCO3)CC1 [JZL184] (first compound 5 µM, partner dose 5 µM)",93.4%,97.6%,112%,106%,85.3%,81.7%,104%,91.4%,67.4%,106%,145%,101%,95.8%,105%,89.1%,105%,114%,96.2%,124%,86.9%
"C[C@@H]1CCN(C(=O)CC#N)C[C@@H]1N(C)c1ncnc2[nH]ccc12 + C/C(O)=C(\C#N)C(=O)Nc1cc(Br)ccc1Br [LFM-A13] (first compound 5 µM, partner dose 10 µM)",103%,86.3%,89.5%,104%,66.2%,86.1%,90.7%,117%,111%,33.7%,114%,109%,114%,101%,122%,83.8%,124%,97.9%,91.3%,115%
"Oc1cc(-c2nc(-c3ccccc3)[nH]c2-c2ccncc2)ccc1Cl + O=C(Oc1ccc([N+](=O)[O-])cc1)N1CCC(C(O)(c2ccc3c(c2)OCO3)c2ccc3c(c2)OCO3)CC1 [JZL184] (first compound 1 µM, partner dose 5 µM)",63.5%,85.4%,94.4%,122%,102%,82%,101%,91.4%,84.5%,70.2%,50.5%,27.9%,78.6%,64.8%,83.3%,42.5%,53%,71.3%,56.2%,46.1%
"C#Cc1cccc(Nc2ncnc3cc(OCCOC)c(OCCOC)cc23)c1 [erlotinib] + C/C(O)=C(\C#N)C(=O)Nc1cc(Br)ccc1Br [LFM-A13] (first compound 4 µM, partner dose 10 µM)",75.9%,64.3%,97.9%,59.8%,80.6%,74.2%,78.6%,77%,62.1%,87%,62.1%,105%,80.7%,63.1%,114%,73.3%,91.1%,101%,61%,72%
"O=C(CCCCCCC(=O)Nc1ccccc1)NO [vorinostat] + Cc1cc(SCc2sc(-c3ccc(C(F)(F)F)c(F)c3)nc2C)ccc1OCC(=O)O [GW0742] (first compound 0.4 µM, partner dose 10 µM)",85%,91.8%,90.8%,90.5%,85%,90.6%,96.4%,87.9%,106%,114%,78.1%,98.8%,84.2%,82.2%,74.7%,72%,101%,97%,99.5%,74.8%
"Cn1c(Nc2ccc(C(F)(F)F)cc2)nc2cc(Oc3ccnc(-c4ncc(C(F)(F)F)[nH]4)c3)ccc21 + Cc1cc(SCc2sc(-c3ccc(C(F)(F)F)c(F)c3)nc2C)ccc1OCC(=O)O [GW0742] (first compound 0.4 µM, partner dose 10 µM)",34.6%,58%,66.2%,29.9%,72.3%,64.9%,55.5%,77.6%,64.4%,74.9%,38.7%,41.3%,72.3%,38.4%,139%,114%,112%,87.3%,68.3%,43.5%
"Cc1cc(Nc2cc(N3CCN(C)CC3)nc(Sc3ccc(NC(=O)C4CC4)cc3)n2)n[nH]1 [Tozasertib] + Cn1cc(C2=C(c3cn(C4CCN(Cc5ccccn5)CC4)c4ccccc34)C(=O)NC2=O)c2ccccc21 [Enzastaurin] (first compound 0.03 µM, partner dose 4 µM)",77.3%,69.7%,53.9%,64.5%,104%,93.6%,76.7%,93.8%,59.7%,76.4%,59.9%,100%,88.2%,91%,78.8%,69.4%,74.5%,79.2%,67.9%,90.1%
"O=C(O)C(=O)Nc1sc2c(c1C(=O)O)CCNC2 + O=C(Oc1ccc([N+](=O)[O-])cc1)N1CCC(C(O)(c2ccc3c(c2)OCO3)c2ccc3c(c2)OCO3)CC1 [JZL184] (first compound 8.33333 µM, partner dose 5 µM)",98%,104%,104%,133%,93.3%,96.8%,91.9%,90.1%,102%,95.8%,61.2%,96.6%,103%,104%,73.4%,110%,108%,102%,132%,76.1%
